The text below walks through data of article PMC12136788.

The list shows a part of the results.

First the molecules themselves.
B1: chr2:232320318:232320319:-_ENSG00000115053_ENST00000322723|hu_hu|hu_hu_hu_mus_True|28_68 (ssRNA)
RNA: GGGAGUUCUACAGUCCGACGAUCACUAUUAAAGUCUACAAAACCAAACCCUUUGGAAGAACCAGUUUCCCGGUCAGUGACUAUUCUUGCACGAACAGAGCCCUCAAAUGACUCCUUUAAGGUCUCUUCAGUGGUAUCCUCAGACAACAGAGGAUUGAGCAUCA
B2: chr18:56819859:56819860:+_ENSG00000166562_ENST00000588875|hu_mus|hu_hu_hu_mus_True|38_68 (ssRNA)
RNA: GGGAGUUCUACAGUCCGACGAUCAACCUUGAUUACUCUGUGAACUAUCGGAAUGUCUCUUCCUUCAACUUUAAAAACAACUAUUUCACCAGCUCUGAUUGGGUCUUCCCGGAAAUUCGUGAGGAACAGCAGAUCUCCUCUGUGCAACAGAGGAUUGAGCAUCA
B3: 2160769_2160889_696_CDS_ENSG00000157933_ENST00000378536|human|control|control (ssRNA)
RNA: GGGAGUUCUACAGUCCGACGAUCACACUUGCCGAAGCACUCGUGGUACACGCGGACGCUGCGCUCGCUGAGCUCCAGGCCCAGCGCCAGGCUGGCGGCCAGCUCCUUCUUGCAGGGCGGCGGGUAGGCGCCGCCGUAGAGCAGCAACAGAGGAUUGAGCAUCA
B4: chr1:10024197:10024198:-_ENSMUSG00000025917_ENSMUST00000027050|mus_mus|motif|central (ssRNA)
RNA: GGGAGUUCUACAGUCCGACGAUCCAGCAUCUGUGUACUAACAUCAAUCCCGGAGAGCCAGCAGCCAUAACCAGGGUGGCGGUGAUACCAACCGAUUGCAUUCUCAAGGCGGCCAACCUGUUUGGCAUUUUCUAUGUAUGCAGCCAACAGAGGAUUGAGCAUCA
B5: chr11:87793471:87793472:-_ENSMUSG00000020483_ENSMUST00000020775|mus_mus|mus_mus_mus_hu_False|48_68 (ssRNA)
RNA: GGGAGUUCUACAGUCCGACGAUCUGGACUUGAAAAUAAAAGAAUAAGCUGGAUCCCCCACCCCCCCACAGUGUCAACCCUACACGAGUUCUGAAUGGGCGACUCAUGAAAAUCAGCAGCUCAAACGGCAAUGACCACCCCACCCAACAGAGGAUUGAGCAUCA
B6: chr14:66974463:66974464:+_ENSMUSG00000022044_ENSMUST00000074523|mus_hu|mus_mus_mus_hu_False|38_108 (ssRNA)
RNA: GGGAGUUCUACAGUCCGACGAUCUUGUAGGAUGAUUUAUUCAGGGGAUCGGCCAGGAAGCAGGAGCAGAACAAGGACACCAGCGGGAGCUCCUUCAUCUUCUCCUUGUAGGCAGCAAGGGUCAUGUUUCUGGGAUCUGGUGGCCAACAGAGGAUUGAGCAUCA
B7: chr1:183139419:183139420:-_ENSMUSG00000038733_ENSMUST00000162963|mus_hu|FALSE|FALSE (ssRNA)
RNA: GGGAGUUCUACAGUCCGACGAUCUUAUCCCAGUCUCCUUCCAUGACAUGAUUUCGGAAUUUGGUAGCAGAAGGAUGUUCUAAACGACAUCCUGACUCUUGCAUGAGGAGAUCAACAGUCUGGUUGAGCCCUAAGCCAUUCAAGCAACAGAGGAUUGAGCAUCA
B8: chr4:25749455:25749456:-_ENSG00000091490_ENST00000264868|hu_hu|hu_hu_hu_mus_False|8_28 (ssRNA)
RNA: GGGAGUUCUACAGUCCGACGAUCGCACUAUGACCUCUAGAAAAAUCCACAGGGGGAAAAAAUGUAAACCAAUGUACAAUGUUAUCGCCUUCCCUGUGUGUGGAGUGACAAACAAUUGGCUCCUUCUUGCCUUAUAAUUUGGGACAACAGAGGAUUGAGCAUCA
B9: 165213534_165213654_165_5pUTR_ENSMUSG00000017667_ENSMUST00000103084|mouse|control|control (ssRNA)
RNA: GGGAGUUCUACAGUCCGACGAUCCGCCCGGAGGCCUGCAGCCCCGGGGGCGCCCGCUAGCCUCGCCCGGCCCCUGGACACGCGCAAGCCUCCGCGGGCCCCAGGAAGGCGCUGGUUCUUCUGAUCCUGCCCCGGAGUCGCCACCAACAGAGGAUUGAGCAUCA
B10: chr15:77794528:77794529:-_ENSMUSG00000016554_ENSMUST00000100484|mus_hu|FALSE|FALSE (ssRNA)
RNA: GGGAGUUCUACAGUCCGACGAUCGGUGGUGACAGUGUGGAAGAUGCGCUUGAUGCUCCGCAGUGGCUUCUCACUCCUCGUGGUGAUGCGGUCAAAGGCUUUGUCGUAGUAUUCUAGGGCCCCACAACACUCAAUGUCCUGUGGCAACAGAGGAUUGAGCAUCA
B11: chr11:30352807:30352808:+_ENSG00000152219_ENST00000282032|hu_hu|motif|central (ssRNA)
RNA: GGGAGUUCUACAGUCCGACGAUCCUUCCAACCAGGUACAAGCUGUCUUCCAAAUUUAGCACUCAGAAAAGUGGCAUCAUCGGAGUCAAUUACAUGCAAAUUUUUUUUGGCUAAUUUCUUGUGUAUGUUAAAUGGGUCACAACACAACAGAGGAUUGAGCAUCA
B12: chr1:145598734:145598735:-_ENSMUSG00000018199_ENSMUST00000159879|mus_mus|FALSE|FALSE (ssRNA)
RNA: GGGAGUUCUACAGUCCGACGAUCUGGUCUGAUAUUUUUAUUGCAAGAGUCUCAAGGUUUUAAUACUAUCUUCAAUUCUCUAAAUGACUUUGCUCAUAGGUUUGAACCAAAACAUUUGCCUUUUGCCUCAAAAAUUUCCCUUAACAACAGAGGAUUGAGCAUCA
B13: chr8:104447970:104447971:+_ENSG00000164934_ENST00000297579|hu_hu|hu_hu_hu_mus_False|98_108 (ssRNA)
RNA: GGGAGUUCUACAGUCCGACGAUCAUAUACCUCCCUGCUUCGACUUUUGUCCACAGGAAAGAUUCUAAUAGACUUAUCAAAGCUGGCAGACACAAAUUCCUUCCCAGUGGGAGAGUAGUCCACAUCAAGUACUGCAGACACGUGCAACAGAGGAUUGAGCAUCA
B14: chr11:77340882:77340883:-_ENSG00000074201_ENST00000525064|hu_hu|motif|central (ssRNA)
RNA: GGGAGUUCUACAGUCCGACGAUCAACAUACAAAUGCUCUCCUAGACAGUCACUUCGGUCCCUGGAUAAUGCAUGUAAACGGAUGGUGGGGUAUUCCAGUGAGAAUCCUAAUCCAGAGCCAUCUAACCAAGACAGGCGGCUCUCCAACAGAGGAUUGAGCAUCA
B15: 36855532_36855652_1642_3pUTR_ENSMUSG00000069662_ENSMUST00000092584|mouse|control|control (ssRNA)
RNA: GGGAGUUCUACAGUCCGACGAUCUAUAUGGGUAUGUCUAUAGAUCUGACAAAGAAAGUUUACACUUUUUUAAUAAAGAUGCAAAGUAUGCAAAAAACAUUAAUACUGAUGCCAAAAAAAAAAAAAAAAAGUAAAAGUAAAGAACAACAGAGGAUUGAGCAUCA
B16: 75685298_75688095_504_CDS_ENSMUSG00000020230_ENSMUST00000020452|mouse|control|control (ssRNA)
RNA: GGGAGUUCUACAGUCCGACGAUCGACGCUGUGGUACUUGGUGGUCCGAGGCUGGUCAGCCAACAUUUCCAGGUGAAGUUUCAGAGUUCCAUAGCUGUCGAAGUACUCCUCGUCCUGCCAGGUGUCCUCCGGGUCGUAUUCCUCCAACAGAGGAUUGAGCAUCA
B17: chr17:60770872:60770873:+_ENSG00000011028_ENST00000303375|hu_hu|hu_hu_hu_mus_True|18_38 (ssRNA)
RNA: GGGAGUUCUACAGUCCGACGAUCUCUUUAAAAAAAAAAAAAAAAAGACAAACAAUAAUAGCACAUUUCGAGAAUCAAGAACUACAAUAGAGGGUCCAUGUCUUCGAUUUGUUCACAACAUUGUCCCCUGGGACACGGGGACUGCAACAGAGGAUUGAGCAUCA
B18: 136383708_136384303_1458_CDS_ENSMUSG00000026455_ENSMUST00000027725|mouse|control|control (ssRNA)
RNA: GGGAGUUCUACAGUCCGACGAUCCAUAGGCGUAACGUUAGUCCAGUGUCCUGUAUGGGGAUCAUAUUUCUCAACUGAAUUUAAUAUGUUCAAGCCAUCAUAUCCUCCUAGACAAUAGAUUAUUCCGCUGGCCACUACUAGUCCCAACAGAGGAUUGAGCAUCA
B19: 125752430_125758377_1055_3pUTR_ENSG00000011454_ENST00000373647|human|control|control (ssRNA)
RNA: GGGAGUUCUACAGUCCGACGAUCCUUAUCAAUUCCUUGGCGUAGUUUAAAGCACUGUCUGUCCUUAUCUUUGGGAACUGCACUAAAAUAACCUUUACCAUCAUCUUCUUUUAUUUCUAAAGACACAGAGAAGGUAAAGAUGUCCAACAGAGGAUUGAGCAUCA
B20: chr4:39779992:39779993:+_ENSG00000078140_ENST00000510719|hu_hu|FALSE|FALSE (ssRNA)
RNA: GGGAGUUCUACAGUCCGACGAUCCUCAGAAGCAAUUCUGUUGCAGUCUCUACAUCCCAUGAUUUUGAAGACAAGGCCACUAUUACUGCAUUCCUAUCAAAGCCCAUAGCACAUAGGUUUUCUAUUUUUUUGGUGUAUUCUGGACAACAGAGGAUUGAGCAUCA
B21: chr5:128448638:128448639:+_ENSG00000066583_ENST00000173527|hu_mus|hu_hu_hu_mus_False|8_8 (ssRNA)
RNA: GGGAGUUCUACAGUCCGACGAUCGGCACUCGCCUUAAUUAGGUUCUGAAUUUCCUUGAACUUCGGGUGGUCUUUGUCAGCCACCAGCUGUAGGAGGACAGCCUCACUAGUGGUCACGAUGAUCCCAGUUCGAGCGAGACGCUCCAACAGAGGAUUGAGCAUCA
B22: chr4:101271765:101271766:+_ENSMUSG00000028528_ENSMUST00000094953|mus_hu|FALSE|FALSE (ssRNA)
RNA: GGGAGUUCUACAGUCCGACGAUCAGACUUAGGUGACAGAUUGUAUACUGUGUAGUGGUCAAGAUGUCUGGAAUCCAAAAAGCUUCGAAUGUCAUCAACCUGAUUCCUGAAUCCUAUGUCAACAUUGUCCAGAGGAAAGGACAUCAACAGAGGAUUGAGCAUCA

The test addresses T1, UNK ZnF1-3 (human, UniProt Q9C0B0 31-174).
T1 sequence: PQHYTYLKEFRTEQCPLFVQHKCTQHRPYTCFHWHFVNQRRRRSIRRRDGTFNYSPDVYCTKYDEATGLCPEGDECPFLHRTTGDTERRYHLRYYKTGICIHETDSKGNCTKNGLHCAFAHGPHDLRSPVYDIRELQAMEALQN
As to the kind of experiment: nsRBNS (natural sequence RNA bind-n-seq); RBNS binding buffer (assumed for nsRBNS): 25 mM Tris pH 7.5, 150 mM KCl, 3 mM MgCl2, 0.01% Triton X-100, 500 ug/ml BSA, 20 U/ml SUPERase-In, 4 C; UNK is unkempt and MSI1 is Musashi-1; names of the RNAs are library labels; protein concentration not given here; high values mean tight binding.
The molecule B1 yielded a binding signal of 0.534 enrichment R. For B2 the value was 0.774 enrichment R; for B3, 0.502 enrichment R. The result for B4 reads 1.53 enrichment R. For the molecule B5, the binding signal came to 1.63 enrichment R.

In turn, B6 came in with a binding signal of 2.39 enrichment R.

Molecule B7 yielded a binding signal of 0.562 enrichment R. For B8 the value was 1.03 enrichment R; for B9, 1.47 enrichment R.

Consider B10, for which the binding signal is 0.83 enrichment R. For B11 the value was 2.07 enrichment R; for B12, 0.75 enrichment R; for B13, 0.926 enrichment R.

For the molecule B14, the binding signal was 1.42 enrichment R. B15 registered a binding signal of 1.04 enrichment R. Consider B16, for which the binding signal came out at 0.823 enrichment R. As for B17, the binding signal was determined as 2.62 enrichment R. The result for B18 reads 0.908 enrichment R; that for B19, 0.931 enrichment R; that for B20, 0.846 enrichment R. In turn, B21 registered a binding signal of 0.667 enrichment R. B22 had a binding signal of 1.48 enrichment R.
